# Test results: the supplement of paper PMC8728848
# This is one part of the list.
# Key:
# Experiment in all cases: glycan array binding signal (z-score within array); higher = stronger binding
# Conditions in all cases: glycan notation: IUPAC condensed, linker removed
# [1] = target: Gal(b1-4)GlcNAc(b1-3)Gal(b1-4)GlcNAc(b1-2)Man(a1-3)[Gal(b1-4)GlcNAc(b1-3)Gal(b1-4)GlcNAc(b1-2)Man(a1-6)]Man(b1-4)GlcNAc(b1-4)[Fuc(a1-6)]GlcNAc
# In short: (§1)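 Columns mapping to the same glycan were averaged after glycan names were converted to IUPAC-condensed notation. The data come from 3228 arrays in the Consortium for Functional Glycomics database, limited to those with an available protein sequence. Binding is reported as a within-array Z-score averaged across arrays of one protein sequence and across linkers.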
# [2] = target: Gal(b1-4)GlcNAc(b1-3)Gal(b1-4)GlcNAc(b1-2)[Gal(b1-4)GlcNAc(b1-3)Gal(b1-4)GlcNAc(b1-6)]Man(a1-6)[Gal(b1-4)GlcNAc(b1-3)Gal(b1-4)GlcNAc(b1-2)Man(a1-3)]Man(b1-4)GlcNAc(b1-4)GlcNAc
# In short: as §1
# [3] = target: Gal(b1-4)GlcNAc(b1-3)Gal(b1-4)GlcNAc(b1-2)[Gal(b1-4)GlcNAc(b1-3)Gal(b1-4)GlcNAc(b1-6)]Man(a1-6)[Gal(b1-4)GlcNAc(b1-3)Gal(b1-4)GlcNAc(b1-2)Man(a1-3)]Man(b1-4)GlcNAc(b1-4)[Fuc(a1-6)]GlcNAc
# In short: as §1
# [4] = target: Gal(b1-4)GlcNAc(b1-3)Gal(b1-4)GlcNAc(b1-3)Gal(b1-4)GlcNAc
# In short: as §1
# [5] = target: Gal(b1-4)GlcNAc(b1-3)Gal(b1-4)GlcNAc(b1-3)Gal(b1-4)GlcNAc(b1-2)Man(a1-3)[Gal(b1-4)GlcNAc(b1-3)Gal(b1-4)GlcNAc(b1-3)Gal(b1-4)GlcNAc(b1-2)Man(a1-6)]Man(b1-4)GlcNAc(b1-4)GlcNAc
# In short: as §1
# [6] = target: Gal(b1-4)GlcNAc(b1-3)Gal(b1-4)GlcNAc(b1-3)Gal(b1-4)GlcNAc(b1-2)Man(a1-3)[Gal(b1-4)GlcNAc(b1-3)Gal(b1-4)GlcNAc(b1-3)Gal(b1-4)GlcNAc(b1-2)Man(a1-6)]Man(b1-4)GlcNAc(b1-4)[Fuc(a1-6)]GlcNAc
# In short: as §1
# [7] = target: Gal(b1-4)GlcNAc(b1-3)Gal(b1-4)GlcNAc(b1-3)Gal(b1-4)GlcNAc(b1-2)[Gal(b1-4)GlcNAc(b1-3)Gal(b1-4)GlcNAc(b1-3)Gal(b1-4)GlcNAc(b1-6)]Man(a1-6)[Gal(b1-4)GlcNAc(b1-3)Gal(b1-4)GlcNAc(b1-3)Gal(b1-4)GlcNAc(b1-2)Man(a1-3)]Man(b1-4)GlcNAc(b1-4)[Fuc(a1-6)]GlcNAc
# In short: as §1
# [8] = target: Gal(b1-4)GlcNAc(b1-3)Gal(b1-4)GlcNAc(b1-3)Gal(b1-4)GlcNAc(b1-3)Gal(b1-4)GlcNAc(b1-2)Man(a1-3)[Gal(b1-4)GlcNAc(b1-3)Gal(b1-4)GlcNAc(b1-3)Gal(b1-4)GlcNAc(b1-3)Gal(b1-4)GlcNAc(b1-2)Man(a1-6)]Man(b1-4)GlcNAc(b1-4)GlcNAc
# In short: as §1
# [9] = target: Gal(b1-4)GlcNAc(b1-3)Gal(b1-4)GlcNAc(b1-3)Gal(b1-4)GlcNAc(b1-3)Gal(b1-4)GlcNAc(b1-2)Man(a1-3)[Gal(b1-4)GlcNAc(b1-3)Gal(b1-4)GlcNAc(b1-3)Gal(b1-4)GlcNAc(b1-3)Gal(b1-4)GlcNAc(b1-2)Man(a1-6)]Man(b1-4)GlcNAc(b1-4)[Fuc(a1-6)]GlcNAc
# In short: as §1
# [10] = target: Gal(b1-4)GlcNAc(b1-3)Gal(b1-4)GlcNAc(b1-3)Gal(b1-4)GlcNAc(b1-3)Gal(b1-4)GlcNAc(b1-2)[Gal(b1-4)GlcNAc(b1-3)Gal(b1-4)GlcNAc(b1-3)Gal(b1-4)GlcNAc(b1-3)Gal(b1-4)GlcNAc(b1-6)]Man(a1-6)[Gal(b1-4)GlcNAc(b1-3)Gal(b1-4)GlcNAc(b1-3)Gal(b1-4)GlcNAc(b1-3)Gal(b1-4)GlcNAc(b1-2)Man(a1-3)]Man(b1-4)GlcNAc(b1-4)[Fuc(a1-6)]GlcNAc
# In short: as §1
# [11] = target: Gal(b1-4)GlcNAc(b1-3)Gal(b1-4)GlcNAc(b1-3)Gal(b1-4)GlcNAc(b1-3)Gal(b1-4)GlcNAc(b1-3)Gal(b1-4)GlcNAc(b1-2)Man(a1-3)[Gal(b1-4)GlcNAc(b1-3)Gal(b1-4)GlcNAc(b1-3)Gal(b1-4)GlcNAc(b1-3)Gal(b1-4)GlcNAc(b1-3)Gal(b1-4)GlcNAc(b1-2)Man(a1-6)]Man(b1-4)GlcNAc(b1-4)GlcNAc
# In short: as §1
# [12] = target: Gal(b1-4)GlcNAc(b1-3)Gal(b1-4)GlcNAc(b1-3)Gal(b1-4)GlcNAc(b1-3)Gal(b1-4)GlcNAc(b1-3)Gal(b1-4)GlcNAc(b1-2)Man(a1-3)[Gal(b1-4)GlcNAc(b1-3)Gal(b1-4)GlcNAc(b1-3)Gal(b1-4)GlcNAc(b1-3)Gal(b1-4)GlcNAc(b1-3)Gal(b1-4)GlcNAc(b1-2)Man(a1-6)]Man(b1-4)GlcNAc(b1-4)[Fuc(a1-6)]GlcNAc
# In short: as §1
# [13] = target: Gal(b1-4)GlcNAc(b1-3)Gal(b1-4)GlcNAc(b1-3)Gal(b1-4)GlcNAc(b1-3)Gal(b1-4)GlcNAc(b1-3)Gal(b1-4)GlcNAc(b1-2)[Gal(b1-4)GlcNAc(b1-3)Gal(b1-4)GlcNAc(b1-3)Gal(b1-4)GlcNAc(b1-3)Gal(b1-4)GlcNAc(b1-3)Gal(b1-4)GlcNAc(b1-6)]Man(a1-6)[Gal(b1-4)GlcNAc(b1-3)Gal(b1-4)GlcNAc(b1-3)Gal(b1-4)GlcNAc(b1-3)Gal(b1-4)GlcNAc(b1-3)Gal(b1-4)GlcNAc(b1-2)Man(a1-3)]Man(b1-4)GlcNAc(b1-4)[Fuc(a1-6)]GlcNAc
# In short: as §1
# [14] = target: Gal(b1-4)GlcNAc(b1-3)Gal(b1-4)GlcNAc(b1-3)Gal(b1-4)GlcNAc(b1-3)Gal(b1-4)GlcNAc(b1-3)Gal(b1-4)GlcNAc(b1-3)Gal(b1-4)GlcNAc(b1-2)Man(a1-3)[Gal(b1-4)GlcNAc(b1-3)Gal(b1-4)GlcNAc(b1-3)Gal(b1-4)GlcNAc(b1-3)Gal(b1-4)GlcNAc(b1-3)Gal(b1-4)GlcNAc(b1-3)Gal(b1-4)GlcNAc(b1-2)Man(a1-6)]Man(b1-4)GlcNAc(b1-4)GlcNAc
# In short: as §1
# [15] = target: Gal(b1-4)GlcNAc(b1-3)Gal(b1-4)GlcNAc(b1-3)GalNAc
# In short: as §1
# [16] = target: Gal(b1-4)GlcNAc(b1-3)Gal(b1-4)GlcNAc(b1-3)[Gal(b1-4)GlcNAc(b1-3)Gal(b1-4)GlcNAc(b1-6)]GalNAc
# In short: as §1
# [17] = target: Gal(b1-4)GlcNAc(b1-3)Gal(b1-4)GlcNAc(b1-6)[Gal(b1-3)]GalNAc
# In short: as §1
# [18] = target: Gal(b1-4)GlcNAc(b1-3)Gal(b1-4)[Fuc(a1-3)]GlcNAc(b1-3)Gal(b1-4)[Fuc(a1-3)]GlcNAc
# In short: as §1
# [19] = target: Gal(b1-4)GlcNAc(b1-3)GalNAc
# In short: as §1
# [20] = target: Gal(b1-4)GlcNAc(b1-3)[Fuc(a1-3)GlcNAc(b1-6)]Gal(b1-4)Glc
# In short: as §1
# [21] = target: Gal(b1-4)GlcNAc(b1-3)[Gal(b1-4)GlcNAc(b1-6)]Gal(b1-4)GlcNAc
# In short: as §1
# [22] = target: Gal(b1-4)GlcNAc(b1-3)[GlcNAc(b1-6)]Gal(b1-4)GlcNAc
# In short: as §1
# [23] = target: Gal(b1-4)GlcNAc(b1-6)Gal(b1-4)GlcNAc
# In short: as §1
# [24] = target: Gal(b1-4)GlcNAc(b1-6)GalNAc
# In short: as §1
# [25] = target: Gal(b1-4)GlcNAc(b1-6)[Gal(b1-3)]GalNAc
# In short: as §1
# [26] = target: Gal(b1-4)GlcNAc(b1-6)[Gal(b1-4)GlcNAc(b1-3)]GalNAc
# In short: as §1
# [27] = target: Gal(b1-4)GlcNAc6P
# In short: as §1
# [28] = target: Gal(b1-6)Gal
# In short: as §1
# [29] = target: Gal3S(b1-3)GalNAc
# In short: as §1
# [30] = target: Gal3S(b1-3)GlcNAc
# In short: as §1
# [31] = target: Gal3S(b1-3)[Fuc(a1-4)]GlcNAc
# In short: as §1
# [32] = target: Gal3S(b1-4)Glc
# In short: as §1
# [33] = target: Gal3S(b1-4)Glc6S
# In short: as §1
# [34] = target: Gal3S(b1-4)GlcNAc
# In short: as §1
# [35] = target: Gal3S(b1-4)[Fuc(a1-3)]Glc6S
# In short: as §1
# [36] = target: Gal3S(b1-4)[Fuc(a1-3)]GlcNAc
# In short: as §1
# [37] = target: Gal3S(b1-4)[Fuc(a1-3)]GlcNAc6S
# In short: as §1
binder,measurement,setting,value
"Siglec-9 (Homo sapiens), Q9Y336 (protein) MLLLLLPLLWGRERAEGQTSKLLTMQSSVTVQEGLCVHVPCSFSYPSHGWIYPGPVVHGYWFREGANTDQDAPVATNNPARAVWEETRDRFHLLGDPHTKNCTLSIRDARRSDAGRYFFRMEKGSIKWNYKHHRLSVNVTALTHRPNILIPGTLESGCPQNLTCSVPWACEQGTPPMISWIGTSVSPLDPSTTRSSVLTLIPQPQDHGTSLTCQVTFPGASVTTNKTVHLNVSYPPQNLTMTVFQGDGTVSTVLGNGSSLSLPEGQSLRLVCAVDAVDSNPPARLSLSWRGLTLCPSQPSNPGVLELPWVHLRDAAEFTCRAQNPLGSQQVYLNVSLQSKATSGVTQGVVGGAGATALVFLSFCVIFVVVRSCRKKSARPAAGVGDTGIEDANAVRGSASQGPLTEPWAEDSPPDQPPPASARSSVGEGELQYASLSFQMVKPWDSRGQEATDTEYSEIKIHR",glycan array binding signal (z-score),[1],-0.033
same,glycan array binding signal (z-score),[2],0.123
same,glycan array binding signal (z-score),[3],-0.002
same,glycan array binding signal (z-score),[4],-0.247
same,glycan array binding signal (z-score),[5],0.078
same,glycan array binding signal (z-score),[6],-0.013
same,glycan array binding signal (z-score),[7],0.172
same,glycan array binding signal (z-score),[8],-0.292
same,glycan array binding signal (z-score),[9],0.258
same,glycan array binding signal (z-score),[10],-0.059
same,glycan array binding signal (z-score),[11],-0.162
same,glycan array binding signal (z-score),[12],-0.149
same,glycan array binding signal (z-score),[13],0.136
same,glycan array binding signal (z-score),[14],0.009
same,glycan array binding signal (z-score),[15],-0.054
same,glycan array binding signal (z-score),[16],0.262
same,glycan array binding signal (z-score),[17],-0.065
same,glycan array binding signal (z-score),[18],-0.032
same,glycan array binding signal (z-score),[19],-0.248
same,glycan array binding signal (z-score),[20],-0.192
same,glycan array binding signal (z-score),[21],-0.221
same,glycan array binding signal (z-score),[22],-0.401
same,glycan array binding signal (z-score),[23],-0.302
same,glycan array binding signal (z-score),[24],-0.17
same,glycan array binding signal (z-score),[25],-0.219
same,glycan array binding signal (z-score),[26],-0.148
same,glycan array binding signal (z-score),[27],-0.074
same,glycan array binding signal (z-score),[28],-0.1
same,glycan array binding signal (z-score),[29],-0.157
same,glycan array binding signal (z-score),[30],-0.151
same,glycan array binding signal (z-score),[31],-0.131
same,glycan array binding signal (z-score),[32],0.072
same,glycan array binding signal (z-score),[33],0.141
same,glycan array binding signal (z-score),[34],-0.121
same,glycan array binding signal (z-score),[35],0.094
same,glycan array binding signal (z-score),[36],0.136
same,glycan array binding signal (z-score),[37],0.139
